From the supplement of paper PMC4166925
± gives the standard deviation of the averaged measurements. The full ranking holds about 33,000 sequences; the median of “E-score (dimensionless, -0.5 to 0.5)” is about -0.046, and the highest 2% start at about 0.36. The list shows a part of the results.

The sequences below were run on T1, SpTbr T-box DNA-binding domain (GST fusion) (assay: PBM E-score of 8-mer (E-score (dimensionless, -0.5 to 0.5)); Tbr is Tbrain of the sea star Patiria miniata (Pm) or the sea urchin Strongylocentrotus purpuratus (Sp); higher = stronger binding preference; most listed sequences are background and not binding sites). Settings: the construct has about 5 more residues each side.
T1 sequence: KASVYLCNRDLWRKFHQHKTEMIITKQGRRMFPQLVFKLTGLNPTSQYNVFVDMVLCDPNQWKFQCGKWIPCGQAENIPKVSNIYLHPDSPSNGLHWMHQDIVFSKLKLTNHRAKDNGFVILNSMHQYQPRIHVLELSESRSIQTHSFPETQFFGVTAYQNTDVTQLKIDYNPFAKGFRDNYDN
Method in brief: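 Each ungapped 8-mer received an enrichment E-score from the Universal PBM Analysis Suite, averaged over duplicate arrays. The proteins were Tbr T-box DNA-binding domains, covering the whole T-box plus about five flanking residues, fused to GST and expressed in BL21 E. coli at 20 °C before glutathione affinity purification. Universal Agilent oligonucleotide arrays were made double-stranded by primer extension and incubated with 200 nM protein in PBS (pH 7.5). The arrays were then scanned and quantified, and every 8-mer was scored from probe intensities.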

Sequence	PBM E-score of 8-mer
ATTCTTAA	-0.137 ± 0.08
CCGGGAAC	-0.0977 ± 0.11
CAGCACTC	-0.0116 ± 0.0032
ATCGGGTC	0.0101 ± 0.02
CGTTAGAG	-0.00014 ± 0.072
ATGTGGTA	-0.0475 ± 0.041
GCGAGAGA	0.203 ± 0.061
ACTGATCT	-0.141 ± 0.032
GAGGACAC	0.155 ± 0.015
ACCTCCAC	0.172 ± 0.038
GCTATCCA	0.0217 ± 0.0038
GCGGCAAC	0.181 ± 0.066
ACATGCGA	0.104 ± 0.028
TCGTCAGA	-0.00592 ± 0.0082
AGGATAGG	-0.0973 ± 0.081
GAGTTATA	-0.15 ± 0.078
GGCGAGGA	0.16 ± 0.036
CCCTTTTA	-0.0476 ± 0.07
GCCATACC	-0.145 ± 0.034
CGGACTAG	-0.03 ± 0.031
AGCCGGAG	-0.104 ± 0.047
AGGATCGA	-0.0329 ± 0.09

Sequence	PBM E-score of 8-mer
ACAGGCAT	-0.0336 ± 0.024
CCTGAACC	-0.209 ± 0.072
GTATACAC	-0.0205 ± 0.003
GGCAGCCC	-0.184 ± 0.038
CCATGTCA	-0.00826 ± 0.057
GAAGGCAC	0.0479 ± 0.015
CCTTGGAC	-0.195 ± 0.0061
CTTAGTGC	0.0877 ± 0.047
GGGGACAC	0.153 ± 0.039
AGCAAGCG	-0.0648 ± 0.046
GTTGCGCA	0.104 ± 0.017
GTGTCCGA	0.171 ± 0.069
AAGACCTT	-0.259 ± 0.0063
ATTCCGTC	0.00686 ± 0.032
TGTCCAAA	-0.0031 ± 0.015
AGGAGGAT	-0.11 ± 0.022
CACCGGGC	-0.164 ± 0.12
GGGGGTGA	0.289 ± 0.03
AACCCACT	-0.195 ± 0.0064
AAGCCTAC	-0.225 ± 0.013
CCCGCTTC	0.139 ± 0.082
GTTAAAAA	-0.0311 ± 0.096

Sequence	PBM E-score of 8-mer
ATCAATTC	0.0449 ± 0.052
ACCAGCCT	-0.119 ± 0.023
GCTTGTCC	-0.146 ± 0.0018
CCAGCGAG	0.0748 ± 0.06
CTTGGAAA	-0.115 ± 0.045
GCCACCGA	0.0804 ± 0.072
AGACCGAC	-0.0541 ± 0.047
AGCACTGA	0.0628 ± 0.0091
ACGTTATC	0.036 ± 0.0067
AACAGCCT	0.104 ± 0.021
ATCCTGAC	-0.0942 ± 0.08
CCCAGGGA	-0.213 ± 0.062
CGAAATCC	-0.0145 ± 0.03
TGGAGTAA	0.0229 ± 0.0036
CGCTAACA	0.32 ± 0.016
TCTTGCAA	0.0588 ± 0.0033
ATATTTTA	-0.179 ± 0.068
CGAGTATA	-0.0211 ± 0.048
ACATATGC	-0.0534 ± 0.018
ATCAGTAG	-0.176 ± 0.079
ATCCGACC	-0.3 ± 0.0094
ACTGCGCA	0.0181 ± 0.1

Sequence	PBM E-score of 8-mer
AATTACTG	-0.048 ± 0.061
ACCCCATC	-0.115 ± 0.019
CATGGACC	-0.161 ± 0.073
ACAGTTGA	0.2 ± 0.059
AGGTAAAG	-0.026 ± 0.018
CCCATAAC	-0.138 ± 0.056
AGTTTATA	-0.0231 ± 0.091
ATGGCGTC	0.0934 ± 0.034
AGCTTCCG	-0.148 ± 0.022
CCATGTCG	0.189 ± 0.0036
CGAATTAA	-0.0504 ± 0.051
AAACGTGC	0.232 ± 0.0069
ACAAGCCC	-0.233 ± 0.0026
CCGGACCA	-0.19 ± 0.036
ACTTGCGA	0.388 ± 0.021
AAGTATAT	-0.147 ± 0.046
TCGCGCGA	0.379 ± 0.0069
AGAACTAG	-0.0455 ± 0.017
ATTGATCC	-0.00647 ± 0.062
TAACGTTA	-0.0796 ± 0.045
CGAATACC	0.123 ± 0.0052
AGATCCAA	-0.1412 ± 0.0004

Sequence	PBM E-score of 8-mer
CAAGTGCG	0.395 ± 0.02
CGCAGAAG	-0.00467 ± 0.042
ATACCGGA	-0.105 ± 0.062
AGGCCGGG	-0.205 ± 0.056
AGATCTCC	-0.135 ± 0.037
GGGTCGAA	0.126 ± 0.016
GCCTTGTA	-0.00667 ± 0.04
CTATCGCA	0.218 ± 0.0022
ATGTGACA	0.409 ± 0.0051
CGTAGGTA	-0.321 ± 0.013
CCCAATCA	-0.0262 ± 0.04
AAACTCAC	0.0177 ± 0.054
ACGACTGC	-0.0612 ± 0.017
GAGCCACA	0.0812 ± 0.07
CGCCAAAG	0.166 ± 0.036
ATAGATTG	-0.173 ± 0.027
CTGTGCTA	0.0802 ± 0.026
TTGCCAAA	0.0607 ± 0.12
AACCCTGA	-0.128 ± 0.029
TACAAACA	0.11 ± 0.032
CATGCCTA	-0.322 ± 0.053
